Some of the results follow.
Experiments:
Experiment in all cases: glycan array binding signal (z-score within array); higher = stronger binding
Details in all cases: glycan notation: IUPAC condensed, linker removed
Fuc(a1-2)Gal = biological target: Fuc(a1-2)Gal
Procedure, shortened: (§1)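 The Consortium for Functional Glycomics database supplied 3228 glycan arrays, of which those lacking an available protein sequence were dropped. The binding signal, a within-array Z-score, was averaged across arrays of the same protein sequence and across linkers. Negative scores can be read as non-binding.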

Fuc(a1-2)Gal(b1-3)GalNAc = biological target: Fuc(a1-2)Gal(b1-3)GalNAc
Procedure, shortened: as §1

[1] = biological target: Fuc(a1-2)Gal(b1-3)GalNAc(a1-3)[Fuc(a1-2)]Gal(b1-4)Glc
Procedure, shortened: as §1

[2] = biological target: Fuc(a1-2)Gal(b1-3)GalNAc(a1-3)[Fuc(a1-2)]Gal(b1-4)GlcNAc
Procedure, shortened: as §1

[3] = biological target: Fuc(a1-2)Gal(b1-3)GalNAc(b1-3)Gal
Procedure, shortened: as §1

[4] = biological target: Fuc(a1-2)Gal(b1-3)GalNAc(b1-3)Gal(a1-4)Gal(b1-4)Glc
Procedure, shortened: as §1

[5] = biological target: Fuc(a1-2)Gal(b1-3)GalNAc(b1-4)[Neu5Ac(a2-3)]Gal(b1-4)Glc
Procedure, shortened: as §1

Fuc(a1-2)Gal(b1-3)GlcNAc = biological target: Fuc(a1-2)Gal(b1-3)GlcNAc
Procedure, shortened: as §1

[6] = biological target: Fuc(a1-2)Gal(b1-3)GlcNAc(b1-2)Man(a1-3)[Fuc(a1-2)Gal(b1-3)GlcNAc(b1-2)Man(a1-6)]Man(b1-4)GlcNAc(b1-4)GlcNAc
Procedure, shortened: as §1

[7] = biological target: Fuc(a1-2)Gal(b1-3)GlcNAc(b1-2)Man(a1-3)[Fuc(a1-2)Gal(b1-3)GlcNAc(b1-2)Man(a1-6)]Man(b1-4)GlcNAc(b1-4)[Fuc(a1-6)]GlcNAc
Procedure, shortened: as §1

[8] = biological target: Fuc(a1-2)Gal(b1-3)GlcNAc(b1-3)Gal(b1-4)Glc
Procedure, shortened: as §1

[9] = biological target: Fuc(a1-2)Gal(b1-3)GlcNAc(b1-3)GalNAc
Procedure, shortened: as §1

[10] = biological target: Fuc(a1-2)Gal(b1-3)GlcNAc(b1-3)[Fuc(a1-2)Gal(b1-3)GlcNAc(b1-6)]GalNAc
Procedure, shortened: as §1

[11] = biological target: Fuc(a1-2)Gal(b1-3)GlcNAc(b1-3)[Gal(b1-4)GlcNAc(b1-6)]Gal(b1-4)Glc
Procedure, shortened: as §1

[12] = biological target: Fuc(a1-2)Gal(b1-3)GlcNAc(b1-3)[Neu5Ac(a2-6)Gal(b1-4)GlcNAc(b1-6)]Gal(b1-4)Glc
Procedure, shortened: as §1

[13] = biological target: Fuc(a1-2)Gal(b1-3)GlcNAc6S
Procedure, shortened: as §1

[14] = biological target: Fuc(a1-2)Gal(b1-3)[Fuc(a1-4)]GlcNAc
Procedure, shortened: as §1

[15] = biological target: Fuc(a1-2)Gal(b1-3)[Fuc(a1-4)]GlcNAc(b1-2)Man(a1-3)[Fuc(a1-2)Gal(b1-3)[Fuc(a1-4)]GlcNAc(b1-2)Man(a1-3)]Man(b1-4)GlcNAc(b1-4)GlcNAc
Procedure, shortened: as §1

[16] = biological target: Fuc(a1-2)Gal(b1-3)[Fuc(a1-4)]GlcNAc(b1-2)Man(a1-3)[Fuc(a1-2)Gal(b1-3)[Fuc(a1-4)]GlcNAc(b1-2)Man(a1-6)]Man(b1-4)GlcNAc(b1-4)[Fuc(a1-6)]GlcNAc(b1-4)[Fuc(a1-6)]GlcNAc
Procedure, shortened: as §1

[17] = biological target: Fuc(a1-2)Gal(b1-3)[Fuc(a1-4)]GlcNAc(b1-3)[Fuc(a1-3)[Gal(b1-4)]GlcNAc(b1-6)]Gal(b1-4)Glc
Procedure, shortened: as §1

[18] = biological target: Fuc(a1-2)Gal(b1-3)[Fuc(a1-4)]GlcNAc(b1-3)[Gal(b1-4)GlcNAc(b1-6)]Gal(b1-4)Glc
Procedure, shortened: as §1

Fuc(a1-2)Gal(b1-4)Glc = biological target: Fuc(a1-2)Gal(b1-4)Glc
Procedure, shortened: as §1

Fuc(a1-2)Gal(b1-4)Glc6S = biological target: Fuc(a1-2)Gal(b1-4)Glc6S
Procedure, shortened: as §1

Fuc(a1-2)Gal(b1-4)GlcNAc = biological target: Fuc(a1-2)Gal(b1-4)GlcNAc
Procedure, shortened: as §1

[19] = biological target: Fuc(a1-2)Gal(b1-4)GlcNAc(b1-2)Man
Procedure, shortened: as §1

[20] = biological target: Fuc(a1-2)Gal(b1-4)GlcNAc(b1-2)Man(a1-3)[Fuc(a1-2)Gal(b1-4)GlcNAc(b1-2)Man(a1-6)]Man(b1-4)GlcNAc(b1-4)GlcNAc
Procedure, shortened: as §1

[21] = biological target: Fuc(a1-2)Gal(b1-4)GlcNAc(b1-2)Man(a1-3)[Fuc(a1-2)Gal(b1-4)GlcNAc(b1-2)Man(a1-6)]Man(b1-4)GlcNAc(b1-4)[Fuc(a1-6)]GlcNAc
Procedure, shortened: as §1

[22] = biological target: Fuc(a1-2)Gal(b1-4)GlcNAc(b1-2)[Fuc(a1-2)Gal(b1-4)GlcNAc(b1-4)]Man(a1-3)[Fuc(a1-2)Gal(b1-4)GlcNAc(b1-2)Man(a1-6)]Man(b1-4)GlcNAc(b1-4)GlcNAc
Procedure, shortened: as §1

[23] = biological target: Fuc(a1-2)Gal(b1-4)GlcNAc(b1-3)Gal(b1-4)GlcNAc
Procedure, shortened: as §1

[24] = biological target: Fuc(a1-2)Gal(b1-4)GlcNAc(b1-3)Gal(b1-4)GlcNAc(b1-2)Man(a1-3)[Fuc(a1-2)Gal(b1-4)GlcNAc(b1-3)Gal(b1-4)GlcNAc(b1-2)Man(a1-6)]Man(b1-4)GlcNAc(b1-4)GlcNAc
Procedure, shortened: as §1

B1: Clec18C (Homo sapiens) (protein)
chain: MLHPETSPGRGHLLAVLLALLGTAWAEVWPPQLQEQAPMAGALNRKESFLLLSLHNRLRSWVQPPAADMRRLDWSDSLAQLAQARAALCGTPTPSLASGLWRTLQVGWNMQLLPAGLVSFVEVVSLWFAEGQRYSHAAGECARNATCTHYTQLVWATSSQLGCGRHLCSAGQAAIEAFVCAYSPRGNWEVNGKTIVPYKKGAWCSLCTASVSGCFKAWDHAGGLCEVPRNPCRMSCQNHGRLNISTCHCHCPPGYTGRYCQVRCSLQCVHGRLREEECSCVCDIGYGGAQCATKVHFPFHTCDLRIDGDCFMVSSEADTYYRARMKCQRKGGVLAQIKSQKVQDILAFYLGRLETTNEVIDSDFETRNFWIGLTYKTAKDSFRWATGEHQAFTSFAFGQPDNHGFGNCVELQASAAFNWNNQRCKTRNRYICQFAQEHISRWGPGS
glycan array binding signal (z-score) (Fuc(a1-2)Gal): -0.469
glycan array binding signal (z-score) (Fuc(a1-2)Gal(b1-3)GalNAc): 0.239
glycan array binding signal (z-score) [1]: -0.445
glycan array binding signal (z-score) [2]: -0.618
glycan array binding signal (z-score) [3]: -0.019
glycan array binding signal (z-score) [4]: -0.588
glycan array binding signal (z-score) [5]: 0.857
glycan array binding signal (z-score) (Fuc(a1-2)Gal(b1-3)GlcNAc): -0.404
glycan array binding signal (z-score) [6]: 3.46
glycan array binding signal (z-score) [7]: -0.43
glycan array binding signal (z-score) [8]: -0.182
glycan array binding signal (z-score) [9]: -0.529
glycan array binding signal (z-score) [10]: 1.73
glycan array binding signal (z-score) [11]: -0.165
glycan array binding signal (z-score) [12]: -0.242
glycan array binding signal (z-score) [13]: 2.16
glycan array binding signal (z-score) [14]: -0.598
glycan array binding signal (z-score) [15]: 0.055
glycan array binding signal (z-score) [16]: -0.486
glycan array binding signal (z-score) [17]: 1.43
glycan array binding signal (z-score) [18]: -0.503
glycan array binding signal (z-score) (Fuc(a1-2)Gal(b1-4)Glc): -0.572
glycan array binding signal (z-score) (Fuc(a1-2)Gal(b1-4)Glc6S): -0.46
glycan array binding signal (z-score) (Fuc(a1-2)Gal(b1-4)GlcNAc): -0.439
glycan array binding signal (z-score) [19]: -0.438
glycan array binding signal (z-score) [20]: -0.195
glycan array binding signal (z-score) [21]: -0.304
glycan array binding signal (z-score) [22]: -0.496
glycan array binding signal (z-score) [23]: -0.426
glycan array binding signal (z-score) [24]: 0.124

Source: the supplement of paper PMC8728848
